# Measurements reported in the supplement of paper PMC4604168 (melanoma cell lines).
# This is one part of the list. Single values are uncertain, as repeats are few or missing.
# Test system: SkMel5
# Assay: cell count relative to DMSO control; melanoma cells; higher = more viable cells
# Conditions: library dose: low library concentration; 72 h
# 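Also: cell number obtained by counting DAPI-stained nuclei in high-throughput microscope images with image analysis software, screen run in 1,536-well plates.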
row,SMILES,cell count [%]
1,"Nc1ccn([C@@H]2O[C@H](CO)[C@@H](O)C2(F)F)c(=O)n1 [gemcitabine] + O=C1NC(=O)/C(=C/c2ccc(-c3ccc(F)cc3O)o2)S1 [AS252424] (first compound 0.0004 µM, partner dose 1 µM)",104
2,"Nc1ccn([C@@H]2O[C@H](CO)[C@@H](O)C2(F)F)c(=O)n1 [gemcitabine] + CC1(C)NC(=O)N(c2ccc([N+](=O)[O-])c(C(F)(F)F)c2)C1=O [nilutamide] (first compound 0.0004 µM, partner dose 1 µM)",97.7
3,"Nc1ncn([C@H]2C[C@H](O)[C@@H](CO)O2)c(=O)n1 [decitabine] + NCC(=O)Nc1ccc(-n2nc(C(F)(F)F)cc2-c2ccc3c(ccc4ccccc43)c2)cc1 [OSU03012] (first compound 0.1 µM, partner dose 1 µM)",76.9
4,"Nc1ccn([C@@H]2O[C@H](CO)[C@@H](O)C2(F)F)c(=O)n1 [gemcitabine] + CC(C)CCN1c2nc(Nc3cc(F)c(O)c(F)c3)ncc2N(C)C(=O)C1C [BID1870] (first compound 0.0004 µM, partner dose 0.2 µM)",96.6
5,"CC(=O)c1c(C)c2cnc(Nc3ccc(N4CCNCC4)cn3)nc2n(C2CCCC2)c1=O [palbociclib] + COc1cc2c(Oc3ccc4[nH]c(C)cc4c3F)ncnc2cc1OCCCN1CCCC1 [cediranib] (first compound 0.04 µM, partner dose 0.4 µM)",66.5
6,"Nc1nc(F)nc2c1ncn2[C@@H]1O[C@H](CO)[C@@H](O)[C@@H]1O [fludarabine] + O=C(O)C(=O)Nc1sc2c(c1C(=O)O)CCNC2 [TCS401] (first compound 0.2 µM, partner dose 1.66667 µM)",65.1
7,"CC(=O)c1c(C)c2cnc(Nc3ccc(N4CCNCC4)cn3)nc2n(C2CCCC2)c1=O [palbociclib] + Cn1cc(/C=C2\C(=O)Nc3cccnc32)c2ccccc21 [GW441756] (first compound 0.04 µM, partner dose 0.4 µM)",69.8
8,"Nc1ccn([C@@H]2O[C@H](CO)[C@@H](O)C2(F)F)c(=O)n1 [gemcitabine] + Oc1nc(-c2ccc(C(F)(F)F)cc2)nc2c1CSCC2 [XAV939] (first compound 0.0004 µM, partner dose 2 µM)",90.7
9,"CC(=O)c1c(C)c2cnc(Nc3ccc(N4CCNCC4)cn3)nc2n(C2CCCC2)c1=O [palbociclib] + Cc1cc([N+](=O)[O-])ccc1NS(=O)(=O)c1cc(Cl)ccc1Cl [FH535] (first compound 0.04 µM, partner dose 1 µM)",72.9
10,"CC(=O)O[C@@]12CO[C@@H]1C[C@H](O)[C@@]1(C)C(=O)[C@H](O)C3=C(C)[C@@H](OC(=O)[C@H](O)[C@@H](NC(=O)OC(C)(C)C)c4ccccc4)C[C@@](O)([C@@H](OC(=O)c4ccccc4)[C@H]21)C3(C)C [Docetaxel] + N#Cc1c(O)c2c(-c3ccc(-c4ccccc4O)cc3)csc2[nH]c1=O [A769662] (first compound 0.0001 µM, partner dose 2 µM)",72
11,"CC(=O)O[C@@]12CO[C@@H]1C[C@H](O)[C@@]1(C)C(=O)[C@H](O)C3=C(C)[C@@H](OC(=O)[C@H](O)[C@@H](NC(=O)OC(C)(C)C)c4ccccc4)C[C@@](O)([C@@H](OC(=O)c4ccccc4)[C@H]21)C3(C)C [Docetaxel] + CN(C)S(=O)(=O)c1ccc2c(c1)/C(=C/c1cc3c([nH]1)CCCC3)C(=O)N2 [SU6656] (first compound 0.0001 µM, partner dose 0.4 µM)",85.7
12,"Nc1ncn([C@H]2C[C@H](O)[C@@H](CO)O2)c(=O)n1 [decitabine] + CN(NC(=O)CC(=O)NN(C)C(=S)c1ccccc1)C(=S)c1ccccc1 [STA4783] (first compound 0.1 µM, partner dose 0.006 µM)",83.6
13,"CC(=O)c1c(C)c2cnc(Nc3ccc(N4CCNCC4)cn3)nc2n(C2CCCC2)c1=O [palbociclib] + NCC(=O)Nc1ccc(-n2nc(C(F)(F)F)cc2-c2ccc3c(ccc4ccccc43)c2)cc1 [OSU03012] (first compound 0.04 µM, partner dose 1 µM)",68.4
